About 800 (1.6%) of roughly 50,000 compounds showed an effect of 50% or more. The list shows a part of the results.
These compounds were tested against Bcl-2-like protein 10 (Homo sapiens) (UniProt Q9HD36) (assay: Phenotype converters, Bcl-B/TR3 peptide binding displacement, primary biochemical FP (AID 1240;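 also: 0% = Bcl-B with tracer peptide and DMSO and 100% = tracer peptide lacking Bcl-B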)). Conditions: GST-Bcl-B / FITC-TR3 peptide fluorescence polarization; stronger effect = higher value; compound at 3.75 mg/L.
UniProt Q9HD36, sequence (Q9HD36 whole entry, looked up): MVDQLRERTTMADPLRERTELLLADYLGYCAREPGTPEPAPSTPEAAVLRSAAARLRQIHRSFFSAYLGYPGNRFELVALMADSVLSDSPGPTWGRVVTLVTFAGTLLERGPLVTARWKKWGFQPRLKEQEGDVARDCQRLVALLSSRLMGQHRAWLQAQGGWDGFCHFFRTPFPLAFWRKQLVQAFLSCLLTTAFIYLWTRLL

| SMILES | displacement |
| --- | --- |
| c1ccc2c(c1)nc(N1CCOCC1)c1ccccc12 | -0.6% |
| CCN1C(=O)c2cccc3c(NC(=O)c4ccc(S(=O)(=O)N5CCCCCC5)cc4)ccc1c23 | 88.2% |
| COc1ccc(C2CC(C(F)(F)F)n3nc(C(=O)NCc4ccco4)c(Br)c3N2)cc1 (centres undefined) | -3.3% |
| CCN1C(=O)/C(=C\c2ccc(C(F)(F)F)cc2)SC1=S | -4.4% |
| O=C1CSC(c2ccc(Cl)c(Cl)c2)N1CC12CC3CC(CC(C3)C1)C2 (centres undefined) | 16.4% |
| Cc1cc2sc3ccccc3c(=O)c2cc1O | 25.4% |
| CCOC(=O)c1[nH]c(=O)[nH]c1CSc1nc2ccccc2o1 | 6.1% |
| COc1ccc(/C=N/Nc2cc(OC)ncn2)c(OC)c1 | -0.6% |
| O=C(NCCNc1ccc([N+](=O)[O-])cc1Cl)c1ccccc1Br | 10% |
| O=C1CCN(C(=O)c2ccccc2)c2cc3ccccc3cc21 | 5% |
| O=c1[nH]c(=O)n(-c2ccccc2Cl)c(O)c1C=Nc1ccc(Cl)cc1 | 18.6% |
| Cc1cc(C)c(-c2csc(NC(=O)c3ccc(Cl)cc3Cl)n2)c(C)c1 | -0.2% |
| Cc1c(NC(=O)c2ccccc2N(Cc2ccccc2)S(C)(=O)=O)c(=O)n(-c2ccccc2)n1C | -2.1% |
| O=C(O)c1ccccc1C(=O)Nc1nncs1 | 1.9% |
| Fc1ccc(OCCCN2CCOCC2)cc1 | 11.1% |
| CC(=O)N1c2ccccc2N(Cc2ccc(Cl)c(Cl)c2)C(=O)C1(C)C | -5.3% |
| Cc1cccc(-c2nc3cc(NC(=O)COc4ccccc4[N+](=O)[O-])ccc3o2)c1 | 15.8% |
| O=C(Nc1ccc2ccccc2c1)C1COc2ccccc2O1 (centres undefined) | 4.4% |
| C/C(=N\NC(=O)c1ccccc1O)c1ccncc1 | 0.7% |
| CC(=NC1CCCCC1)C1=C(O)c2ccccc2C1=O | 1.8% |
| COc1ccccc1OCC(=O)n1nc(C)cc1C | 8.4% |
| CC(=O)c1cccc(NC(=O)/C(=C\c2cccnc2)NC(=O)c2ccccc2)c1 | -5.3% |

| SMILES | displacement |
| --- | --- |
| COc1ccc2nc(SCC(=O)Nc3ccccc3)[nH]c2c1 | 6.1% |
| COc1ccc(C2/C(=C(\O)c3ccc(Cl)cc3)C(=O)C(=O)N2CCCCCC(=O)O)cc1 (centres undefined) | -4.1% |
| COC(=O)C12CC3(C)CC(C)(CC(C)(C3)C1)C2 | -1.2% |
| O=C1NC(=O)C(=Cc2ccc(OCCOc3ccccc3)cc2)C(=O)N1 | 0.3% |
| O=C(COc1ccc([N+](=O)[O-])cc1)Nc1ccc2oc(-c3ccccc3F)nc2c1 | 10.7% |
| Cc1ccc(C(=O)N/C(=C\c2ccc(C(C)C)cc2)C(=O)NCCCN2CCOCC2)cc1 | 11.7% |
| CC1=C(C(=O)Nc2ccc(Cl)cc2)C(c2ccc([N+](=O)[O-])cc2)NC(=O)N1 (centres undefined) | 124% |
| Cc1ccc(S(=O)(=O)C(=O)Nc2cccc3nsnc23)cc1 | 8.4% |
| O=C1NC(=O)N(c2cccc(Br)c2)C(=O)/C1=C/c1ccc(-c2ccccc2C(=O)O)o1 | -13.6% |
| Cc1ccccc1OCC(=O)NCCSc1ccccn1 | 4.4% |
| CCOC(=O)C1=C(O)/C(=C/c2ccc(O)cc2)N=C1C | -9.4% |
| Cc1ccc(N2C(=O)/C(=C/c3ccc(Oc4ccc([N+](=O)[O-])cn4)cc3)C(=O)NC2=S)cc1 | 1.9% |
| CC(=O)c1ccc(N2CCN(C(=O)c3cccs3)CC2)c(F)c1 | -4.6% |
| CC(C)OC(=O)c1ccc(NC(=O)COc2ccc([N+](=O)[O-])cc2)cc1 | -10% |
| CCOC(=O)c1c(NC(=S)Nc2ccccc2)sc2c1CCCCC2 | 6.1% |
| CCCCCc1nnc(NC(=O)COc2ccccc2)s1 | 1.4% |
| c1ccc(-c2cc(N3CCCCC3)nc3ccccc23)cc1 | 2.6% |
| COc1ccc(S(=O)(=O)N(CC(=O)N2CCCCCC2)c2ccc(C)cc2)cc1OC | -7.2% |
| CC1=CC(C)(C)Nc2ccc(OC(=O)CN3C(=O)c4ccccc4C3=O)cc21 | -2.3% |
| O=C(c1ccccc1F)N1CCN(c2ccc(Cl)cc2[N+](=O)[O-])CC1 | 7.8% |
| CC(=O)NC(c1ccccc1)c1c(OC(=O)c2ccccc2)ccc2ccccc12 (centres undefined) | -4.1% |
| CCOCCOC(=O)c1cccc(NC(=O)c2ccccc2C)c1 | 6.1% |

| SMILES | displacement |
| --- | --- |
| c1ccc(OCCCn2ccnc2)cc1 | -7.2% |
| O=C(NCCCn1ccnc1)c1cc([N+](=O)[O-])cc([N+](=O)[O-])c1 | -12.7% |
| COc1ccc(C2/C(=C(/O)c3ccc(Cl)cc3)C(=O)C(=O)N2C)c(OC)c1 (centres undefined) | 7.6% |
| O=C(O)CSc1nnc(COc2ccccc2)n1-c1ccc(Cl)cc1 | 2.5% |
| N#CC1=C(SCC(=O)Nc2ccc(Br)cc2)NC(=O)CC1c1cccs1 (centres undefined) | -10.4% |
| CCOC(=O)c1c(NC(=O)c2ccc(C)cc2)sc(C(=O)Nc2ccccc2C(F)(F)F)c1C | -12.4% |
| CC(C)(Cc1ccc(O)cc1)NC(=O)SCc1ccccc1 | -10.4% |
| CC(=O)Nc1cccc(NC(=O)c2cc(Cl)ccc2Cl)c1 | 4.6% |
| CC1(C)Cc2c(sc3nc(SCc4ccc(Cl)cc4)n(Cc4ccccc4)c(=O)c23)CO1 | 9.4% |
| COc1ccc(S(=O)(=O)Nc2ccc(F)c([N+](=O)[O-])c2)cc1 | 15.9% |
| COc1ccc(/C=C/C(=O)Nc2ccc([N+](=O)[O-])cc2)cc1 | 3% |
| CCN(CC)CC(=O)Nc1ccc2c(c1)N(C(=O)CNN(CC)CC)c1ccccc1CC2 | -2% |
| OCCN=Cc1c2ccc[nH]c-2c2ccccc12 | 14.1% |
| Cn1c(/C=C/c2c[nH]c3ccccc23)nc2ccccc2c1=O | 108% |
| CCOc1ccc2c(c1)C(C)=CC(C)(C)N2S(=O)(=O)c1ccc(NC(C)=O)cc1 | 2.1% |
| Cc1cc(C)nc(/N=C(/N)NNC(=O)c2cccnc2)n1 | -17.4% |
| Cc1ccc(N(CC(=O)NCCSc2ccc(Cl)cc2)S(C)(=O)=O)cc1 | 13.4% |
| COC(=O)c1ccc(/C=c2\sc3nc4cc(C)c(C)cc4n3c2=O)cc1 | -7.7% |
| Cc1oc(C(=O)O)cc1CSCc1cc(C(=O)O)oc1C | 12.9% |
| COc1cc(C(=O)O)cc(OC)c1OC(=O)c1cc(C)c(C)o1 | -13.8% |
| Nc1nonc1/C(=N/O)N1CCN(CCO)CC1 | 7.8% |
| O=C(Nc1ccncc1)c1cc2ccccc2o1 | 10.1% |

| SMILES | displacement |
| --- | --- |
| COc1cc(C(=O)Nc2ccc(Br)cn2)cc(OC)c1OC | -1.3% |
| CCCCOC(=O)Nc1ccc(S(=O)(=O)Nc2cc(C)ccc2C)cc1 | 7.1% |
| CC(=O)Nc1ccc(S(=O)(=O)Nc2cccc(C(=O)Nc3cccc(Cl)c3)c2)cc1 | -4.2% |
| COc1ccc(C(=O)Nc2ccccc2C(=O)NC(Cc2c[nH]c3ccccc23)C(=O)O)cc1 (centres undefined) | 14.8% |
| COc1ccc(C(=O)NCCSc2ccccn2)cc1 | -8.2% |
| O=C(/C=C/c1cccc([N+](=O)[O-])c1)Nc1ccc(F)c(Cl)c1 | 1.3% |
| CCSc1nnc2c(n1)OC(C)(C)Nc1ccccc1-2 | -6.3% |
| O=C(N/N=C/C1CC=CCC1)c1cccnc1 (centres undefined) | 4.9% |
| CC1=C(C(=O)OCCOC(C)C)C(c2ccccc2Cl)NC(=O)N1 (centres undefined) | -11.2% |
| O=S1(=O)CC=C(CSc2nc3ccccc3[nH]2)C1 | 4% |
| CC(C)CC(NC(=O)/C(=C/c1ccccc1F)NC(=O)c1ccccc1)C(=O)O (centres undefined) | -2.1% |
| CN(C)CCN1C(=O)C(=O)/C(=C(/O)c2ccccc2)C1c1ccc(F)cc1 (centres undefined) | 2.1% |
| CCOc1ccc2nc(SCC(=O)Nc3ccc(C)cc3)sc2c1 | -2.7% |
| CCN(c1ccccc1)c1nc2nonc2nc1N(C)C | 4.8% |
| O=C(Cn1c(O)c(N=NC(=S)Nc2ccccc2)c2ccccc21)Nc1ccccc1 | -0.2% |
| Cc1cc(Cl)ccc1OCC(=O)Nc1cccc(F)c1 | 11.1% |
| C/C(=N\NC(=O)c1cc(C(C)(C)C)[nH]n1)c1ccc(Br)cc1 | -4.7% |
| Cc1ccc(CN2CCN(N=Cc3ccccc3[N+](=O)[O-])CC2)c(C)c1 | 6.6% |
| CS(=O)(=O)N(Cc1ccc(Cl)cc1)c1ccc(C(=O)Nc2cccnc2)cc1 | -12.6% |
| COC(=O)c1ccc(COc2ccc3c4c(c(=O)oc3c2C)CCCC4)cc1 | -4.5% |
| Cc1sc2ncnc(N3CCCCCC3)c2c1C | -1.2% |
| Cc1ccc(/C=C/C(=O)c2ccc([N+](=O)[O-])cc2)s1 | -14.7% |

| SMILES | displacement |
| --- | --- |
| COc1ccc2c(C(F)(F)F)cc(=O)oc2c1 | 13.7% |
| O=C1CSC(c2ccc([N+](=O)[O-])cc2)N1CC12CC3CC(CC(C3)C1)C2 (centres undefined) | 7.9% |
| CN1CCN(/N=C/C=C/c2ccccc2)CC1 | -2.3% |
| COc1ccc(NC2=C(Cl)C(=O)N(c3cccc(Cl)c3)C2=O)c(OC)c1 | -3.1% |
| CCCCOC(=O)C1=C(C)NC(=S)NC1c1ccc(N(C)C)cc1 (centres undefined) | 6.6% |
| COc1ccc(-c2nnc(SCC(=O)c3ccc(F)cc3)n2-c2ccccc2)cc1 | 10.5% |
| OC(COc1ccc(Cl)cc1)CSc1nc2ccccc2s1 (centres undefined) | -12.9% |
| O=C1CC(c2ccccc2)CC2=C1C(c1cccc(C(F)(F)F)c1)Nc1ccccc1N2 (centres undefined) | 8.2% |
| CCSc1nnc(NC(=O)c2c(-c3c(Cl)cccc3Cl)noc2C)s1 | 9% |
| Oc1ccccc1C=Nc1ccccc1N=Cc1c(O)ccc2ccccc12 | -8.6% |
| COc1ccc(NC(=O)COc2ccc(C(C)C)cc2)c(OC)c1 | 1.9% |
| Cc1c(C(c2cc3c(cc2Br)OCO3)c2c(C)n(C)n(-c3ccccc3)c2=O)c(=O)n(-c2ccccc2)n1C | -4.7% |
| O=C(COc1ccccc1)Nc1cccc([N+](=O)[O-])c1 | 2.4% |
| COc1cc(-c2nnc(N)s2)cc(OC)c1OC | 13.2% |
| COc1ccc(OC)c(N(CC(=O)Nc2ccc(C)cc2)S(=O)(=O)c2ccccc2)c1 | -5.4% |
| CCN(C(=O)c1sc(NC(=O)c2ccccc2F)c(C#N)c1C)C1CCCCC1 | 11% |
| O=C(Nc1ccccc1)c1ccccc1N=Cc1cc(Cl)cc(Cl)c1O | 11.3% |
| CC1=NN(C(=O)c2ccncc2)C(O)(c2ccc(Cl)cc2)C1 (centres undefined) | -10.9% |
| COc1cccc(NCCC(=O)c2ccccc2)c1 | 15.7% |
| O=C(NCCN1CCOCC1)c1sc2ccccc2c1Cl | -3.6% |
| C=CCOC(=O)C1=C(C)NC(C)=C(C(=O)OCC=C)C1c1ccc(C(=O)OC)cc1 | 4.8% |
